The values that follow come from a collection of fitness landscapes (doi:10.1016/j.celrep.2020.107928).

The full ranking holds about 81,000 sequences; the median of “one-hybrid fitness for binding NBS DNA” is about -0.1, and the highest 2% start at about 0.36. The list shows a part of the results. Bounds are passed on as bounds.

B1: Caulobacter ParB omega fusion; a variant is named by its letters at X, in order, B8GW30 (parent)
chain: MESVVVGEPGMSEGRRGLGRGLSALLGEVDAAPAQAPGEQLGGSREAPIEILQRNPDQPRRTFREEDLEDLSNSIREKGVLQPILVRPSPDTAGEYQIVAGERAWRAAQRAGLKTVPIMVRELDDLAVLEIGIIENVQRADLNVLEEALSYKVLMEKFERTQENIAQTIGKSXSHVANXMRLLXLPDEVQSYLVSGELTAXHARAIAAAADPVALAKQIIEGGLSVRETEALARKAPNLSAGKSKGGRPPRVKDTDTQALESDLSSVLGLDVSIDHRGSTGTLTITYATLEQLDDLCNRLTRGI

This test covers variants of B1. Kind of test: one-hybrid fitness for binding NBS DNA (the Noc-binding site; scaled: cognate 1, non-cognate 0); higher = stronger binding. The note with it: with NBS DNA site. The method, boiled down: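 Fitness is the rescaled log change in variant-to-wild-type read ratio, measured by Illumina sequencing of plasmids before and after bacterial one-hybrid selection. The scale puts cognate at 1 and non-cognate at 0. Selection of Caulobacter ParB libraries, four specificity codons randomised, took place in E. coli USO with a HIS3 reporter, site 19 bp from the promoter, over 48 hours at 37°C on M9-minus-histidine with 0.1 mM IPTG and 5 mM 3-AT.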
Turning to MVRV, the “one-hybrid fitness for binding NBS DNA” value is at most 0.2.
Then YLLV, with at most 0.2; and SEAN, with at most 0.2.
In the case of QMIA, the “one-hybrid fitness for binding NBS DNA” value was at most 0.2.
The value for NIPD was at most 0.2; that for MESP was at most 0.2; that for QKYC was at most 0.2.
Then GKHT, with at most 0.2; and FVKR, with at most 0.2; and SNMN, with at most 0.2.
As to HCHG, the “one-hybrid fitness for binding NBS DNA” value is at most 0.2.
On to RFLT, for which the “one-hybrid fitness for binding NBS DNA” value is at most 0.2.
The value for LCFL was at most 0.2.
Then FTKP, with at most 0.2.
Take RYVG: the “one-hybrid fitness for binding NBS DNA” value is at most 0.2.
Then DIPN, with at most 0.2.
Then ADSS, with at most 0.2; and AMQC, with at most 0.2.
As for RSGA, the “one-hybrid fitness for binding NBS DNA” value is at most 0.2.
Then FATG, with at most 0.2; and GYSK, with at most 0.2.
Consider GTWA, for which the “one-hybrid fitness for binding NBS DNA” value is at most 0.2.
Then HQTW, with at most 0.2; and YVSF, with at most 0.2; and PTRG, with at most 0.2.
DNNR: the “one-hybrid fitness for binding NBS DNA” value is at most 0.2.
Then FGQS, with at most 0.2.
Then RSPC, with at most 0.2; and RYWL, with at most 0.2; and GKAG, with at most 0.2.
The value for RCTW was at most 0.2.
SPCM: the “one-hybrid fitness for binding NBS DNA” value is at most 0.2.
The value for RMVQ was at most 0.2; that for GSQF was at most 0.2; that for LSYR was at most 0.2.
Regarding ERQN, the “one-hybrid fitness for binding NBS DNA” value is at most 0.2.
GDNS: the “one-hybrid fitness for binding NBS DNA” value is at most 0.2.
Then RIPA, with at most 0.2; and GVHQ, with at most 0.2.
With SSYG, the “one-hybrid fitness for binding NBS DNA” value is at most 0.2.
For the variant QKGY, the “one-hybrid fitness for binding NBS DNA” value worked out at 0.237.
The value for VKPG was at most 0.2; that for VRAC was at most 0.2; that for SGYR was at most 0.2.
Then GAPG, with at most 0.2; and MWTS, with at most 0.2; and GDFR, with at most 0.2.
Then PRLW, with at most 0.2; and HNPT, with at most 0.2; and DCSV, with at most 0.2.
Regarding PTHN, the “one-hybrid fitness for binding NBS DNA” value was at most 0.2.
The value for CDSS was at most 0.2; that for FQGS was at most 0.2; that for QHDA was at most 0.2.
Then SCKT, with at most 0.2; and RFQG, with at most 0.2.
Then RFLG, with at most 0.2; and IGAA, with at most 0.2; and HPRF, with at most 0.2.
For PTGN, the “one-hybrid fitness for binding NBS DNA” value was at most 0.2.
Then YGTR, with at most 0.2; and RHHY, with at most 0.2.
Then MRFI, with at most 0.2; and QRPK, with at most 0.2; and DGRH, with at most 0.2.
Then QCKL, with 0.307; and RRWQ, with 0.251.
Turning to QAYW, the “one-hybrid fitness for binding NBS DNA” value is at most 0.2.
Regarding KGPF, the “one-hybrid fitness for binding NBS DNA” value was at most 0.2.
The value for ILEI was at most 0.2.
In the case of TNTR, the “one-hybrid fitness for binding NBS DNA” value was at most 0.2.
As to HMDS, the “one-hybrid fitness for binding NBS DNA” value is at most 0.2.
Then TKQN, with at most 0.2; and AVML, with at most 0.2.
Regarding LYIF, the “one-hybrid fitness for binding NBS DNA” value is at most 0.2.
For the variant MKTS, the “one-hybrid fitness for binding NBS DNA” value was at most 0.2.
Take HRAI: the “one-hybrid fitness for binding NBS DNA” value is at most 0.2.
Then DVLG, with at most 0.2.
Then PKHN, with at most 0.2; and KRSH, with 0.205.
As to HNIY, the “one-hybrid fitness for binding NBS DNA” value was at most 0.2.
As for QQML, the “one-hybrid fitness for binding NBS DNA” value was at most 0.2.
As to ITIC, the “one-hybrid fitness for binding NBS DNA” value was at most 0.2.
For PDVS, the “one-hybrid fitness for binding NBS DNA” value was at most 0.2.
In the case of NVPL, the “one-hybrid fitness for binding NBS DNA” value is at most 0.2.
With ASLC, the “one-hybrid fitness for binding NBS DNA” value was at most 0.2.
As for ISHR, the “one-hybrid fitness for binding NBS DNA” value was at most 0.2.
On to QPHQ, for which the “one-hybrid fitness for binding NBS DNA” value was at most 0.2.
Turning to MQHR, the “one-hybrid fitness for binding NBS DNA” value was at most 0.2.
Consider THCF, for which the “one-hybrid fitness for binding NBS DNA” value was at most 0.2.
Take STGS: the “one-hybrid fitness for binding NBS DNA” value is at most 0.2.
The value for FQKC was at most 0.2; that for AQAR was at most 0.2; that for FCMS was at most 0.2.
For NCRG, the “one-hybrid fitness for binding NBS DNA” value is at most 0.2.
The value for EAYA was at most 0.2.
Then TTEY, with at most 0.2; and FVNT, with at most 0.2.
The value for WPDS was at most 0.2; that for RHNC was at most 0.2; that for GVGG was at most 0.2.
For QARI, the “one-hybrid fitness for binding NBS DNA” value was determined as 0.279.
The value for LPDL was at most 0.2; that for PWLF was at most 0.2.
Then RRVF, with at most 0.2; and TLGN, with at most 0.2; and LVDY, with at most 0.2.
As for QTCR, the “one-hybrid fitness for binding NBS DNA” value was found to be 0.679.
For the variant FQNG, the “one-hybrid fitness for binding NBS DNA” value was at most 0.2.
For the variant DSTV, the “one-hybrid fitness for binding NBS DNA” value was at most 0.2.
Take RWIV: the “one-hybrid fitness for binding NBS DNA” value is at most 0.2.
The value for VNVG was at most 0.2; that for KIVD was at most 0.2; that for NHHN was at most 0.2.
Turning to DYIG, the “one-hybrid fitness for binding NBS DNA” value was at most 0.2.
For FDMG, the “one-hybrid fitness for binding NBS DNA” value was at most 0.2.
As for ENHG, the “one-hybrid fitness for binding NBS DNA” value was at most 0.2.
In the case of RIVK, the “one-hybrid fitness for binding NBS DNA” value is at most 0.2.
The value for AHRV was at most 0.2; that for GPKT was at most 0.2; that for QCKP was 0.332.
The value for RIRK was at most 0.2; that for FTFT was at most 0.2; that for LKMY was at most 0.2.
Then MIQR, with at most 0.2; and WYFS, with at most 0.2; and SLVV, with at most 0.2.
As for ACGW, the “one-hybrid fitness for binding NBS DNA” value is at most 0.2.
Then QRMA, with 0.549.
As for CHPT, the “one-hybrid fitness for binding NBS DNA” value is at most 0.2.
Then QHIL, with at most 0.2; and EPCY, with at most 0.2.
Then SRPN, with at most 0.2; and RPKE, with at most 0.2.
On to WQDI, for which the “one-hybrid fitness for binding NBS DNA” value is at most 0.2.
Then RLKY, with 0.287; and RMLP, with at most 0.2.
Then YNHR, with at most 0.2.
As for EVKD, the “one-hybrid fitness for binding NBS DNA” value was at most 0.2.
As to TLTL, the “one-hybrid fitness for binding NBS DNA” value was at most 0.2.
The value for TSYV was at most 0.2.
Consider HPTR, for which the “one-hybrid fitness for binding NBS DNA” value was at most 0.2.
NGVS: the “one-hybrid fitness for binding NBS DNA” value is at most 0.2.
With QNRR, the “one-hybrid fitness for binding NBS DNA” value is 0.439.
The value for LYTV was at most 0.2; that for YERV was at most 0.2.
Then LDRT, with at most 0.2; and FMTQ, with at most 0.2.
Turning to RSCT, the “one-hybrid fitness for binding NBS DNA” value is 0.281.
In the case of QLQA, the “one-hybrid fitness for binding NBS DNA” value is 0.204.
The value for PTGL was at most 0.2; that for QWWG was at most 0.2; that for AITN was at most 0.2.
